Results: the supplement of paper PMC8948288
Shown are siRNA guide strands that differ only in the seed, positions 2 to 7.

How the values were obtained:
H4 = assay: cell viability relative to siNT1 (ATP content); H4 human neuroglioma and GL261 mouse glioma; higher = less toxic; settings: siRNA concentration 10 nM; 96 h; human
GL261 = assay: as above; settings: siRNA concentration 25 nM; 96 h; mouse
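Also: cells reverse transfected with siRNA duplexes via lipid reagent, ATP read by luminescence, triplicate wells, values scaled to mean viability with non-targeting control siNT1.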

Row | Sequence | cell viability (H4) [%] | cell viability (GL261) [%]
1 | UGAAGUGACAUGUAAACCA | 79.5 | 40.1
2 | UGAAGUUACAUGUAAACCA | 47.2 | 14
3 | UGAAUAAACAUGUAAACCA | 98.2 | 82.8
4 | UGAAUACACAUGUAAACCA | 76.7 | 39.2
5 | UGAAUAGACAUGUAAACCA | 103 | 62.4
6 | UGAAUAUACAUGUAAACCA | 86.2 | 59.6
7 | UGAAUCAACAUGUAAACCA | 94.2 | 79.3
8 | UGAAUCCACAUGUAAACCA | 38.3 | 34.6
9 | UGAAUCGACAUGUAAACCA | 90.2 | 76.8
10 | UGAAUCUACAUGUAAACCA | 80.6 | 89
11 | UGAAUGAACAUGUAAACCA | 92.2 | 46.6
12 | UGAAUGCACAUGUAAACCA | 68 | 27.6
13 | UGAAUGGACAUGUAAACCA | 64.4 | 13.4
14 | UGAAUGUACAUGUAAACCA | 55.9 | 23.2
15 | UGAAUUAACAUGUAAACCA | 108 | 56.5
16 | UGAAUUCACAUGUAAACCA | 60.8 | 21.9
17 | UGAAUUGACAUGUAAACCA | 103 | 58
18 | UGAAUUUACAUGUAAACCA | 97 | 52.1
19 | UGACAAAACAUGUAAACCA | 101 | 34.2
20 | UGACAACACAUGUAAACCA | 61.4 | 22.6

Row | Sequence | cell viability (H4) [%] | cell viability (GL261) [%]
21 | UGACAAGACAUGUAAACCA | 86 | 26.3
22 | UGACAAUACAUGUAAACCA | 66.3 | 28.7
23 | UGACACAACAUGUAAACCA | 62.3 | 60.5
24 | UGACACCACAUGUAAACCA | 12.9 | 16.4
25 | UGACACGACAUGUAAACCA | 75.4 | 58.5
26 | UGACACUACAUGUAAACCA | 26.2 | 36.2
27 | UGACAGAACAUGUAAACCA | 81.3 | 60.4
28 | UGACAGCACAUGUAAACCA | 26.4 | 20.1
29 | UGACAGGACAUGUAAACCA | 70 | 35.4
30 | UGACAGUACAUGUAAACCA | 32.4 | 7.13
31 | UGACAUAACAUGUAAACCA | 81.8 | 45.4
32 | UGACAUCACAUGUAAACCA | 46.6 | 3.83
33 | UGACAUGACAUGUAAACCA | 89.9 | 34.2
34 | UGACAUUACAUGUAAACCA | 67.3 | 29.7
35 | UGACCAAACAUGUAAACCA | 110 | 49
36 | UGACCACACAUGUAAACCA | 60.1 | 24.4
37 | UGACCAGACAUGUAAACCA | 29.3 | 39.9
38 | UGACCAUACAUGUAAACCA | 88.2 | 30
39 | UGACCCAACAUGUAAACCA | 74.3 | 27.3
40 | UGACCCCACAUGUAAACCA | 34.7 | 8.02

Row | Sequence | cell viability (H4) [%] | cell viability (GL261) [%]
41 | UGACCCGACAUGUAAACCA | 103 | 36.4
42 | UGACCCUACAUGUAAACCA | 37 | 13
43 | UGACCGAACAUGUAAACCA | 99.3 | 43.2
44 | UGACCGCACAUGUAAACCA | 66.6 | 32
45 | UGACCGGACAUGUAAACCA | 71.9 | 25
46 | UGACCGUACAUGUAAACCA | 97.2 | 20.9
47 | UGACCUAACAUGUAAACCA | 90.2 | 60.2
48 | UGACCUCACAUGUAAACCA | 51.6 | 19.7
49 | UGACCUGACAUGUAAACCA | 30.8 | 42
50 | UGACCUUACAUGUAAACCA | 18.4 | 22.7
51 | UGACGAAACAUGUAAACCA | 98.2 | 109
52 | UGACGACACAUGUAAACCA | 55.9 | 27.2
53 | UGACGAGACAUGUAAACCA | 76.6 | 58.6
54 | UGACGAUACAUGUAAACCA | 78.3 | 87.5
55 | UGACGCAACAUGUAAACCA | 93.8 | 33.4
56 | UGACGCCACAUGUAAACCA | 66.7 | 15.8
57 | UGACGCGACAUGUAAACCA | 79.3 | 48.1
58 | UGACGCUACAUGUAAACCA | 70.8 | 35.3
59 | UGACGGAACAUGUAAACCA | 69 | 33.5
